Several values for one entry are separate records, joined by “and”; a condition that tells them apart may be missing. Equal entries are not always repeated. Out of some 420,000 compounds screened, about 50,000 (12%) were called active. Inconclusive results, whose numbers are uncertain, are shown with a selection of clear calls. The call rests on the fitted dose curve; in most records, active means well fitted inhibition curve with a large enough effect; inconclusive means small, poorly fitted or top-dose-only effect; inactive means flat fitted curve, though single readings scatter. Potencies of inconclusive entries are left out as doubtful fits.
assay: qHTS for Inhibitors of human tyrosyl-DNA phosphodiesterase 1 (TDP1): qHTS in cells in presence of CPT; conditions: chicken DT40 Tdp1-/-;hTDP1 cells + 20 nM CPT, ATP luminescence, 48 h; activity change, negative = growth inhibition: at 46.2 µM (top of the series) unless noted; further: nearly all actives have a fitted effect of over 55% in size
In short: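 Chicken DT40 Tdp1-/- cells complemented with human TDP1, 400 cells/well, exposed to compounds plus 20 nM camptothecin for at least 48 h at 37 C; viability read as ATP content by CellTiter-Glo luminescence.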
On the % scale 0 is the no-effect control and ±100 the full control effect; potency means the concentration at half of the fitted maximal effect; tags describe the fitted curve by direction and shape.

| Compound | Potency | activity change, negative = growth inhibition |
| --- | --- | --- |
| Cc1cc([N+](=O)[O-])nn1CCCC(=O)Nc1cc(Oc2ccc(F)cc2)cc([N+](=O)[O-])c1 | inconclusive [inhibitor, single point] | – |
| CC(C)c1ccc(OCC(=O)NNC(=O)c2cnccn2)cc1 | inconclusive [inhibitor, single point] | – |
| COc1ccc(Nc2c3c(c(C#N)c4nc5ccccc5n24)CCC3)cc1 | inactive | – |
| COC(=O)C1=C(N)Oc2cc(C)[nH]c(=O)c2C1c1ccc(Cl)cc1 (stereo not drawn) | inconclusive [inhibitor, single point] | – |
| CCOC(=O)Cn1nnnc1C(CC)N(Cc1ccccc1)Cc1cc2cc(C)ccc2[nH]c1=O (stereo not drawn) | – | inconclusive: -30.5% [inhibitor] |
| CN1CCN(c2ncc3nc(-c4ccc(Cl)cc4)c(=O)n(-c4ccccc4)c3n2)CC1 | inconclusive [inhibitor, single point] | – |
| O=C(COC(=O)C1CC(=O)N(Cc2ccco2)C1)Nc1nc(-c2ccc(F)cc2)cs1 (stereo not drawn) | – | inconclusive: -30.5% [inhibitor] |
| N#C/C(=C\c1ccc(Cl)cc1)c1nc(-c2cc3c(ccc4ccccc43)oc2=O)cs1 | inactive | – |
| COc1ccc2c(=O)ccoc2c1 | inactive | – |
| Cc1ccc(S(=O)(=O)/N=C(\N)Nc2nc(C)c3cc(C)ccc3n2)cc1 | inconclusive [inhibitor, single point] | – |
| Cc1ccc(COC[C@H](CC(C)C)N2CCN(C(=O)c3cccc(C(F)(F)F)c3)CCC2=O)cc1 | inconclusive [inhibitor, single point] | – |
| O=c1c(-c2cccnc2)nc2ccccc2n1C(CCc1ccccc1)c1nc2ccccc2[nH]1 (stereo not drawn) | inactive | – |
| CCOC(=O)N(C)[C@H]1C[C@H]2c3[nH]c4ccccc4c3CCN2C[C@H]1[C@H](C)O | inconclusive [inhibitor, partial curve] | – |
| Nc1nc2c(ncn2[C@H]2C[C@H](O)[C@@H](CO)O2)c(=O)[nH]1 | active: 6.31 µM and active: 4.61 µM | – |
| COc1ccc(C(C(=O)NC2CCCC2)N(CCC(C)C)C(=O)CCC(=O)Nc2cc(C)on2)cc1 (stereo not drawn) | inconclusive [inhibitor, single point] | – |
| Cc1ccccc1Nc1nnc(SCc2cc(=O)n3ccsc3n2)s1 | inconclusive [inhibitor, single point] | – |
| Cc1ccc(/C=N/NC(=O)C2COc3ccccc3O2)s1 (stereo not drawn) | active: 1.16 µM | – |
| O=C(CN1C(=O)CC(c2ccc(F)cc2)=Nc2ccccc21)NCc1ccccc1Cl | inconclusive [inhibitor, single point] | – |
| COc1cccc(/C=N/Nc2ncc(C(F)(F)F)cc2Cl)c1O | active: 4.61 µM | – |
| CCCn1c(-c2cccs2)nc2ccccc21 | inactive | – |
| Cc1ccc(S(=O)(=O)Nc2ccc3c(c2)CC(=O)N([C@H](C)CO)C[C@H](C)[C@H](CN(C)Cc2ccc4c(c2)OCO4)O3)cc1 | active: 20.6 µM | – |
| COCCn1c(SCC(=O)N2CCCCCC2)nc2c(c1=O)SCC2 | – | inconclusive: -37.6% [inhibitor] |

| Compound | Potency | activity change, negative = growth inhibition |
| --- | --- | --- |
| CCOC(=O)c1ccc(S(=O)(=O)NNC(=O)COc2ccccc2C)cc1 | inconclusive [inhibitor, single point] | – |
| COc1cccc(N2CCN(c3ncnc4onc(-c5ccc(Cl)cc5)c34)CC2)c1 | inconclusive [inhibitor, single point] | – |
| Cc1ccc(C)c(Nc2nn3c(=O)c4ccc(C(=O)NCc5cccs5)cc4nc3s2)c1 | inconclusive [inhibitor, single point] | – |
| O=C(CSc1nc2ccccc2nc1SCC(=O)N1CCCCC1)N1CCCCC1 | active: 16.4 µM | – |
| Cc1cnc(NC(=O)/C=C/c2ccc(Br)o2)s1 | inconclusive [inhibitor, single point] | – |
| CCSc1nc2c(c(=O)[nH]1)C(c1cccs1)C(C(=O)OC)=C(C)N2 (stereo not drawn) | inactive | – |
| COc1ccc(-c2csc3ncnc(Cl)c23)cc1 | inconclusive [inhibitor, single point] | – |
| CC(C)Cn1c(N)c(C(=O)COC(=O)c2ccc(F)cc2)c(=O)n(C)c1=O | inconclusive [inhibitor, single point] | – |
| Cc1ccc(S(=O)(=O)N2CCCC2)cc1C(=O)Nc1ccc(-n2cnnn2)cc1 | inconclusive [inhibitor, single point] | – |
| Clc1ccccc1-c1nc(Nc2ccccc2)nc2ccc(Br)cc12 | inconclusive [inhibitor, single point] | – |
| Cc1cc(C(=O)Cn2nc(C(=O)O)c3ccccc3c2=O)c(C)n1-c1ccc(F)cc1 | active: 29.1 µM | – |
| O=C(Nc1ccn(CCCN(CCCn2ccc(NC(=O)OCc3ccccc3)nc2=O)CCc2cc3ccccc3[nH]2)c(=O)n1)OCc1ccccc1 | inconclusive [inhibitor, single point] | – |
| O=C(CSc1nnc(Cc2cccs2)n1Cc1ccco1)Nc1cccc(Cl)c1 | inconclusive [inhibitor, single point] | – |
| COc1cc(NC(=O)CSc2nnc3n2C(C)(C)Cc2ccccc2-3)cc(OC)c1 | inactive | – |
| CCOc1ccccc1OCCCNCc1ccccc1 | inconclusive [inhibitor, single point] | – |
| COCCNC(=O)CCC(=O)NNc1nc2ccccc2c2nc(-c3ccccc3)nn12 | inconclusive [inhibitor, single point] | – |
| O=C(NC1CCCC1)c1c(O)nc2sccn2c1=O | inconclusive [inhibitor, single point] | – |
| COc1ccc(NC(=O)c2cc3ccccc3cc2OC)cc1 | active: 29.1 µM | – |
| Cc1nc2nc(C)c(NS(=O)(=O)c3ccc(C4CCCCC4)cc3)c(=O)n2[nH]1 | inactive | – |
| COC(=O)/C=C/C(=O)N1CCN(c2ccccc2C)CC1 | inconclusive [inhibitor, single point] | – |
| COc1cccc(OCc2cc(C(=O)N3CCC(c4ccncc4)CC3)no2)c1 | active: 14.6 µM | – |

Source: PubChem BioAssay AID686979 (National Center for Advancing Translational Sciences (NCATS), 2013)
